Here are results for 57 compounds from paper PMC4336329 (PLoS ONE, 2015).

Out of some 310,000 compounds screened, about 14,000 (4.5%) showed an effect of 50% or more. Effects have a minus sign here. This is one part of the list.
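Note: peak tail current of the secondary pulse compared with the same well before compound.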

The target of the assay is human ether-à-go-go-related gene (hERG) potassium channel (human, UniProt Q12809). Put plainly: primary screen, population patch clamp on CHO cells stably expressing hERG.
Chain of human ether-à-go-go-related gene (hERG) potassium channel (Q12809 whole entry, looked up): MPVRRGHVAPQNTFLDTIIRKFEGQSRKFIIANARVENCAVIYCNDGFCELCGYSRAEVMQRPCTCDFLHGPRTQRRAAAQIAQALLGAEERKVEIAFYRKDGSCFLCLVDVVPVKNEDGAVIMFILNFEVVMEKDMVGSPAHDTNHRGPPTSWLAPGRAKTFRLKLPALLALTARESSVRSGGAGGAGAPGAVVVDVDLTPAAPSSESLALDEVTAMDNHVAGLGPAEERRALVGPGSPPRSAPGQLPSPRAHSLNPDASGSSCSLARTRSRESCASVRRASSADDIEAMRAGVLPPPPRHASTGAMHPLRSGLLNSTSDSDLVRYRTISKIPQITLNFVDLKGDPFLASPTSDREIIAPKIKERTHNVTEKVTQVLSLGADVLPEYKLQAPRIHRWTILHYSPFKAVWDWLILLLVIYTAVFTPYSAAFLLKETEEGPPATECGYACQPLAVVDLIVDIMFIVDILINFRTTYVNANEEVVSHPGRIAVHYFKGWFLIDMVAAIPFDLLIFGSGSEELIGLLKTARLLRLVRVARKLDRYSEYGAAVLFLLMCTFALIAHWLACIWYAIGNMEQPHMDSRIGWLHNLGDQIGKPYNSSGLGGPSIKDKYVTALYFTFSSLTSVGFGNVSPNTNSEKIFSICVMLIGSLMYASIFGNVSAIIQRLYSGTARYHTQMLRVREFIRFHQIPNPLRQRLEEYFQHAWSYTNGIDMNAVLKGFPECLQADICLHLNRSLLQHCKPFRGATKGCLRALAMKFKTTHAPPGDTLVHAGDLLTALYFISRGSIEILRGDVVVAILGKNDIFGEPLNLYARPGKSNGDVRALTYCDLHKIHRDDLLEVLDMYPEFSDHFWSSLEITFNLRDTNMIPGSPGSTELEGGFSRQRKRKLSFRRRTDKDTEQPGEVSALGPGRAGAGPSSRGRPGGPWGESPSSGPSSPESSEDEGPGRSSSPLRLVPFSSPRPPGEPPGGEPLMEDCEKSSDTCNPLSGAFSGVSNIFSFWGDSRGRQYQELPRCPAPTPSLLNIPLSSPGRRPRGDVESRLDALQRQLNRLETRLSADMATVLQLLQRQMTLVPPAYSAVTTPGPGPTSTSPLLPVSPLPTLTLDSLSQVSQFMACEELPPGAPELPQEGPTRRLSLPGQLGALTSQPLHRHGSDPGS
`Cc1oc(-c2ccccc2F)nc1CS(=O)(=O)CC(=O)N1CCOCC1`: the “hERG current change (%, negative = inhibition) at 10uM” value worked out at 15.7%.
Then `COC(=O)N/N=C/c1cccc([N+](=O)[O-])c1`, with 2.39%.
For the compound `O=C(O)CC1(CC(=O)Nc2cc(F)ccc2Cl)CCCCC1`, the “hERG current change (%, negative = inhibition) at 10uM” value is recorded as 2.36%.
For the compound `Cc1nnc(SCC(=O)NCc2ccc3c(c2)OCO3)s1`, the “hERG current change (%, negative = inhibition) at 10uM” value is 21.1%.
Then `COc1ccc(S(=O)(=O)NNC(=O)C(=O)NNc2ccccn2)cc1`, with 6.3%.
Then `N#CCSc1nc2ccccc2c(=O)n1CCCC(=O)NCc1ccco1`, with -33.7%; and `Cc1ccnc(SC2CC(=O)N(c3ccc(Cl)cc3)C2=O)n1` (stereo not drawn), with 19.2%.
On to `Cc1ccc(NC2Sc3ccccc3NC2=O)cc1` (stereo not drawn), for which the “hERG current change (%, negative = inhibition) at 10uM” value was found to be 10.7%.
Consider `COc1ccccc1OCC(=O)Nc1ccccc1C(=O)N1CCCCC1`, for which the “hERG current change (%, negative = inhibition) at 10uM” value stood at 11.6%.
The figure for `CC1CN(c2ccc(S(=O)(=O)N3CCOCC3)cn2)CC(C)O1` (stereo not drawn) is 18.7%.
In the case of `CCCCn1c(N)c(N(CCOC)C(=O)C2CCN(S(=O)(=O)c3ccc(C)cc3)CC2)c(=O)[nH]c1=O`, the “hERG current change (%, negative = inhibition) at 10uM” value is reported as 14.1%.
Then `CCc1nnc(NC(=O)c2ccc(S(=O)(=O)NC3CCCCC3)cc2)s1`, with 13%.
As to `O=C(Nc1ncc(Cl)cn1)c1cccs1`, the “hERG current change (%, negative = inhibition) at 10uM” value came out at 25.9%.
The figure for `COC(=O)C1=C(c2cccc(C#N)c2)C[C@@H]2CC[C@H]1N2C(=O)NC1CCCCC1` is -12%.
With `CC(=O)Nc1ccc(Nc2cc(C)nc3c(-c4ccc(Cl)cc4)c(C)nn23)cc1`, the “hERG current change (%, negative = inhibition) at 10uM” value was 3.05%.
In the case of `O=C(COC(=O)CCC(=O)c1ccccc1)NCCc1ccccc1`, the “hERG current change (%, negative = inhibition) at 10uM” value is recorded as -10.4%.
The figure for `Cc1c(C(=O)O)sc2ncnc(N3CCCCC3C)c12` (stereo not drawn) is 13.6%; for `CCc1cccc(NC(=O)C2CCCN(S(=O)(=O)c3c(C)[nH]c(=O)[nH]c3=O)C2)c1` (stereo not drawn) it is 10.1%; for `CC(=O)Nc1ccc(N=Cc2c(O)ccc3ccccc23)cc1` it is 14.6%.
Regarding `CC1=Nc2ccccc2N=C(NC(=O)CSC(=S)N2CCCCC2)C1c1ccccc1` (stereo not drawn), the “hERG current change (%, negative = inhibition) at 10uM” value is given as -1.22%.
The figure for `O=C(CSc1ncccn1)NCc1cccs1` is 11.7%.
The figure for `Cc1cc(/C=C2/NC(=O)NC2=O)c(C)n1-c1ccccn1` is -4.99%; for `CSc1ccc(NC(=O)Nc2cccn(Cc3ccccc3F)c2=O)cc1` it is 19.3%.
For the compound `C=CCNc1nc(C)c(C(C)=O)cc1C#N`, the “hERG current change (%, negative = inhibition) at 10uM” value is given as 6.83%.
For `Cc1nn(C(=O)CCC(=O)NCc2cccc(F)c2)c2ccccc12`, the “hERG current change (%, negative = inhibition) at 10uM” value amounted to 19.2%.
For `Nc1cc(N)nc(SCC(=O)Nc2ccc3c(c2)OCCCO3)n1`, the “hERG current change (%, negative = inhibition) at 10uM” value was determined as 8.03%.
With `CC(C)[C@@H]1N[C@]2(C(=O)Nc3ccccc32)[C@@H]2C(=O)N(c3cccc(C(F)(F)F)c3)C(=O)[C@@H]21`, the “hERG current change (%, negative = inhibition) at 10uM” value is -7%.
As for `CCOc1ccc(N2CC(C(=O)NCCc3ccc(S(N)(=O)=O)cc3)CC2=O)cc1` (stereo not drawn), the “hERG current change (%, negative = inhibition) at 10uM” value came to 12.1%.
Take `O=C(c1cc(-c2ccc(Cl)s2)nc2ccccc12)N1CCOCC1`: the “hERG current change (%, negative = inhibition) at 10uM” value is on record as -17%.
Then `COc1cc(/C=N/NC(=O)c2cccnc2)ccc1OC(=O)c1ccc2c(c1)OCO2`, with 24.4%; and `N=Cc1c(O)n(-c2cccc(Cl)c2)c(=O)[nH]c1=O`, with -10.3%; and `CC(C)Oc1ccc(S(=O)(=O)N(C(C)C)C(C)C)cn1`, with 1.44%.
The figure for `CCOC(=O)c1c(C)[nH]c(C2=NNC(=Nc3cccc(Cl)c3)SC2)c1C` is 0.47%; for `O=C(NCC(c1cccs1)N1CCOCC1)c1ccc(Cl)nc1` (stereo not drawn) it is -8.03%.
As to `CC(C)(C)[C@@H]1C=C(C(=O)N2CCN(Cc3ccc4c(c3)OCO4)CC2)O[C@H](OCc2ccc(CO)cc2)C1`, the “hERG current change (%, negative = inhibition) at 10uM” value is -35%.
As for `O=C(CN1C(=O)C2C3C=CC(C3)C2C1=O)N1CC=C(c2ccccc2)CC1` (stereo not drawn), the “hERG current change (%, negative = inhibition) at 10uM” value is given as -10.1%.
On to `CCCS(=O)(=O)N1CCC(Cc2ccc(OC)cc2)(C(=O)OCC)CC1`, for which the “hERG current change (%, negative = inhibition) at 10uM” value was -0.00512%.
Then `COc1ccc(NC(=O)Cn2c(=O)n(-c3ccccc3)c(=O)c3sccc32)c(OC)c1`, with 0.835%.
The figure for `O=C(CSc1ccc(-c2ccccn2)nn1)N1CCCCC1` is 12.5%.
For the compound `COc1ccc(NC(=O)CSc2nc3ccccc3nc2N2CCCC2)cc1Cl`, the “hERG current change (%, negative = inhibition) at 10uM” value is recorded as -27.4%.
The figure for `Cc1cc(C)nc(NCC(O)CNc2ccccc2Cl)n1` (stereo not drawn) is 4.35%; for `O=C1CCC(C(=O)N2CCCC(Nc3ccc(F)cc3)C2)=NN1` (stereo not drawn) it is 1.7%.
The figure for `COc1ccc2nc(/C(C#N)=C\c3ccc(Oc4ccc([N+](=O)[O-])cn4)cc3)[nH]c2c1` is -10.6%.
In the case of `Cc1ccc(-c2nnn(CC(=O)NCCc3ccc4c(c3)OCO4)n2)o1`, the “hERG current change (%, negative = inhibition) at 10uM” value is 6.9%.
The figure for `Cc1ccccc1NC(=S)NC1CCN(Cc2ccccc2)CC1` is -12.3%; for `O=C(NCCC(=O)N1CCN(c2ncccn2)CC1)c1ccccc1` it is 11.6%.
`CC(=O)OCCCN1c2ccccc2Nc2nnc(-c3ccccc3)cc21`: the “hERG current change (%, negative = inhibition) at 10uM” value is on record as -34.6%.
The figure for `COc1ccc(NC(=O)CC(=O)Nc2ccc(OC)cc2OC)c(OC)c1` is -2.45%.
Turning to `Cc1ccc(C(=O)NCC(=O)OCC(=O)Nc2cc(C)c(C)cc2[N+](=O)[O-])cc1`, the “hERG current change (%, negative = inhibition) at 10uM” value amounted to 4.76%.
The figure for `CC1CC(C)CN(C(=O)CSCC(=O)Nc2nc(-c3cccs3)cs2)C1` (stereo not drawn) is 8.83%; for `N/C(=N\OC(=O)Oc1ccccc1)c1cccc([N+](=O)[O-])c1` it is 22.7%; for `Cc1ccsc1/C=C1/C(=O)NN(c2ccccc2)C1=O` it is -9.63%.
Then `COc1ccccc1NC(=O)CNC(=O)c1ccccc1C`, with 15.7%; and `Cc1ccccc1C1NS(=O)(=O)N=C1N` (stereo not drawn), with 23.3%.
Consider `COc1ccc(NC(=O)c2ccco2)cc1NC(=O)c1ccc(C)cc1`, for which the “hERG current change (%, negative = inhibition) at 10uM” value is 3.81%.
Then `CC(C)CC(=O)N=C1SC2CS(=O)(=O)CC2N1Cc1ccccc1Cl` (stereo not drawn), with 6.06%.
The figure for `CCCCCCCCN1[C@@H](CC(=O)OC)c2cc(C(F)(F)F)ccc2S1(=O)=O` is 1.99%.
